In the supplement of paper PMC12217912:
Some of the results follow. Sequences were assembled here from the parent chain. Inactive controls read about 0.05.

B1: TEV protease; numbered along this chain (parent)
chain: MGESLFKGPRDYNPISSSICHLTNESDGHTTSLYGIGFGPFIITNKHLFRRNNGTLVVQSLHGVFKVKDTTTLQQHLVDGRDMIIIRMPKDFPPFPQKLKFREPQREERICLVTTNFQTKSMSSMVSDTSCTFPSGDGIFWKHWIQTKDGQCGSPLVSTRDGFIVGIHSASNFTNTNNYFTSVPKNFMELLTNQEAQQWVSGWRLNADSVLWGGHKVFMVKPEEPFQPVKEATQL

Variants of: B1
Assay: raw area under fraction-flipped curve 0-4 h after induction (AUC4h, not background-subtracted), DNA-recorder readout of cleavage of the substrate (dimensionless); higher = more cleavage of the substrate by the protease variant
Details: temperature: 34 °C; time window: 0-4 h after rhamnose induction
Description: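 In vivo DNA recorder in E. coli TOP10(DE3) ΔrhaA at 34 °C. Each TEVp single-site mutant (parent TEVp 0) is paired with a single-site variant of the 7-mer TEVs (canonical ENLYFQ|S). The substrate sits between flexible linkers in a Bxb1-sfGFP-TEVs-SsrA fusion, so cleavage stabilises Bxb1 and speeds flipping of a recombination array, read by NGS. The value is the raw area under the fraction-flipped curve over 0-4 h after rhamnose induction (AUC4h), with ≥20 reads per time point. It is not background-subtracted; inactive controls average about 0.047.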
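Note: Bxb1 expression induced with 0.2% (w/v) L-rhamnose at OD600 near 0.5, cultures sampled hourly, flipped fraction per protease–substrate barcode pair counted by paired-end Illumina sequencing.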

| Variant | area with substrate ENAYFQS | area with substrate ENCYFQS | area with substrate ENDYFQS | area with substrate ENFYFQS | area with substrate ENGYFQS | area with substrate ENHYFQS | area with substrate ENIYFQS | area with substrate ENKYFQS | area with substrate ENMYFQS | area with substrate ENNYFQS | area with substrate ENPYFQS | area with substrate ENQYFQS | area with substrate ENRYFQS | area with substrate ENSYFQS | area with substrate ENTYFQS | area with substrate ENVYFQS | area with substrate ENYYFQS | area with substrate ENEYFQS | area with substrate ENWYFQS |
| --- | --- | --- | --- | --- | --- | --- | --- | --- | --- | --- | --- | --- | --- | --- | --- | --- | --- | --- | --- |
| L191V | 0.0544 | 0.0698 | 0.0614 | 0.072 | 0.0695 | 0.052 | 0.115 | 0.068 | 0.0643 | 0.0531 | 0.0681 | 0.0641 | 0.0569 | 0.067 | 0.0588 | 0.046 | 0.0543 | – | – |
| N193E | 0.0646 | 0.0669 | – | – | – | 0.0785 | – | – | – | 0.0665 | 0.0509 | 0.0972 | 0.051 | 0.0821 | 0.0584 | – | – | 0.0664 | 0.0536 |
| N193W | 0.0423 | – | 0.0711 | – | 0.0585 | 0.0754 | 0.0714 | – | – | 0.1 | – | 0.0587 | – | 0.0816 | 0.0568 | – | 0.0598 | 0.0677 | – |
| Q194K | 0.0456 | 0.08 | 0.0608 | – | 0.0674 | – | – | 0.0673 | – | 0.0752 | 0.0451 | 0.0691 | 0.0578 | – | – | – | 0.0657 | – | – |
| Q194M | 0.0659 | 0.0744 | – | – | 0.068 | 0.0602 | 0.0956 | 0.069 | – | 0.0679 | – | 0.0651 | 0.0448 | 0.032 | 0.0413 | 0.0669 | 0.0619 | 0.0656 | – |
| Q194V | 0.0542 | 0.0632 | 0.0553 | – | 0.063 | – | – | – | – | 0.0836 | 0.0463 | – | – | 0.0664 | 0.0728 | 0.0724 | 0.0747 | – | 0.0543 |
| A196R | 0.0624 | – | – | 0.0563 | – | – | – | – | – | – | – | – | – | – | – | – | – | 0.0728 | – |
| A196T | 0.0626 | 0.0642 | 0.0642 | 0.0565 | – | – | – | 0.0634 | 0.0823 | 0.0687 | 0.0628 | 0.0516 | 0.0624 | 0.0887 | 0.0672 | 0.108 | – | – | 0.0522 |
| A196Y | 0.0793 | – | – | – | – | 0.0642 | – | 0.0573 | – | 0.0843 | – | 0.0638 | – | 0.0542 | 0.074 | 0.086 | – | 0.0727 | 0.0389 |
| Q197N | 0.0679 | – | 0.0726 | 0.0701 | 0.0677 | – | – | – | – | – | 0.0588 | – | – | – | – | 0.0717 | – | 0.0627 | – |
| Q197P | 0.0603 | – | 0.0654 | 0.0462 | – | – | – | – | – | 0.0614 | 0.0538 | 0.0683 | – | 0.0369 | – | – | – | – | 0.0512 |
| Q197S | 0.0907 | – | 0.0531 | 0.0621 | – | – | – | – | 0.0722 | 0.0753 | 0.0659 | – | – | 0.0695 | – | – | 0.0597 | 0.0607 | – |
| W199I | 0.0622 | – | 0.0441 | 0.0789 | – | – | 0.0437 | – | – | – | 0.0619 | – | 0.0722 | – | 0.0562 | – | – | – | – |
| W199V | 0.0541 | 0.0735 | – | – | 0.0665 | – | – | – | – | 0.0693 | – | 0.0767 | 0.0528 | 0.062 | – | 0.0501 | 0.0411 | 0.0624 | 0.0489 |
| S201V | 0.0563 | 0.0535 | – | – | 0.0647 | – | 0.0854 | 0.058 | 0.0971 | 0.0579 | – | 0.05 | 0.0528 | – | 0.0528 | – | 0.0808 | 0.0866 | – |
| G202E | 0.0844 | – | 0.0632 | – | – | 0.0698 | – | – | 0.0566 | 0.0621 | – | 0.0679 | 0.0798 | – | – | 0.0729 | 0.0662 | 0.0782 | – |
| W203K | 0.0517 | 0.0663 | 0.0574 | – | 0.0649 | 0.0691 | 0.0635 | 0.051 | 0.0596 | 0.0617 | 0.0559 | 0.0838 | 0.0527 | 0.0704 | 0.0574 | 0.0636 | – | 0.058 | – |
| W203L | 0.0558 | 0.0669 | 0.0506 | – | 0.0617 | – | – | – | – | 0.0554 | 0.0529 | – | – | 0.0586 | 0.0628 | 0.0517 | – | 0.062 | – |
| R204A | 0.0744 | 0.0326 | 0.0357 | 0.0681 | 0.0627 | 0.0467 | – | – | 0.0851 | 0.0727 | 0.0757 | 0.0658 | 0.081 | 0.079 | – | 0.094 | 0.0756 | 0.0671 | 0.0611 |
| L205R | 0.0622 | 0.0639 | 0.0588 | – | 0.0876 | 0.0588 | 0.0645 | 0.0676 | – | 0.0664 | – | 0.0608 | – | 0.0585 | 0.0636 | 0.0625 | – | 0.0581 | 0.0713 |
| N206E | 0.0507 | 0.0678 | 0.0718 | 0.0799 | 0.0509 | 0.0576 | 0.0874 | 0.0736 | 0.0838 | 0.0861 | 0.0515 | 0.0652 | 0.0746 | 0.11 | 0.0816 | 0.0929 | 0.0658 | 0.0562 | 0.0414 |
| N206I | 0.0582 | – | 0.071 | – | 0.0524 | 0.0699 | 0.0865 | 0.0503 | – | 0.0541 | 0.0551 | 0.0579 | – | 0.0773 | 0.0528 | 0.0828 | – | 0.0611 | 0.0344 |
| A207D | 0.0619 | 0.0637 | 0.0681 | 0.0567 | 0.0582 | 0.0618 | 0.107 | 0.0706 | – | 0.0677 | 0.0637 | 0.0604 | 0.0524 | 0.0677 | 0.0663 | – | – | 0.065 | 0.0515 |
| S209L | 0.0644 | 0.0616 | 0.049 | 0.0555 | 0.0525 | 0.0696 | – | – | – | – | – | 0.0646 | – | – | – | – | – | – | – |
| V210F | 0.0505 | 0.07 | – | 0.06 | 0.06 | 0.0404 | 0.117 | 0.0664 | 0.0545 | – | – | 0.0603 | 0.035 | – | 0.0503 | 0.0687 | – | – | – |
| V210T | 0.0528 | – | 0.0583 | 0.058 | – | – | 0.0844 | – | – | – | 0.061 | 0.057 | 0.0655 | 0.0543 | 0.0681 | 0.0611 | 0.0544 | 0.0867 | 0.0328 |
| L211F | 0.0564 | – | – | – | 0.0614 | 0.0611 | – | 0.0679 | – | 0.0538 | 0.0612 | 0.0557 | 0.0586 | 0.0647 | – | – | – | 0.0606 | – |
| L211K | 0.0706 | 0.0677 | 0.0568 | 0.0664 | 0.0437 | 0.0658 | – | – | – | 0.0631 | – | 0.0565 | – | 0.0378 | – | 0.0752 | – | 0.0603 | – |
| G214Q | 0.0599 | 0.0603 | 0.0848 | – | – | – | – | – | – | – | – | – | – | 0.0666 | – | 0.0474 | – | – | – |
| H215M | 0.0639 | – | 0.0643 | 0.0644 | 0.0609 | 0.0248 | – | – | – | 0.0675 | – | 0.0691 | 0.0503 | 0.0477 | 0.0657 | – | – | 0.0691 | – |
